Out of some 71,000 compounds screened, about 1,800 (2.5%) were called active. The inconclusive results got no clear call from the source; some entries with a clear call stand among them for comparison. The call rests on the fitted dose curve; in most records, active means well fitted activation curve with a large enough effect in the signal ratio, with a control signal flat (not every such curve was filed as active); inconclusive means small, poorly fitted or top-dose-only effect, or effect the other way, or a change in a side signal; inactive means flat fitted curve, though single readings scatter; the % refers to the signal ratio. A potency beside an inconclusive call is a rough fit, not a confirmed value.
Assay: Cell signaling CRE-BLA (Fsk stim); on activity change, negative = inhibition: % of control where 0% means no effect
Conditions: CHO CRE-bla reporter (cAMP response element driving beta-lactamase), forskolin EC10, beta-lactamase ratio; activity change, negative = inhibition: at 38.2 µM (top of the series) unless noted
In short: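 CHO CRE-bla cells, overnight plating in Opti-MEM with 0.5% dialyzed FBS; cpd titration + EC10 NKH 477, 3 h 37 °C; CCF4 2 h RT; ex 405/em 460 vs 530 ratio → %Activity, AC50.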
Potency means the concentration at half of the fitted maximal effect; tags describe the fitted curve by direction and shape.

| Structure (SMILES) | activity change, negative = inhibition | Potency |
| --- | --- | --- |
| Cc1cccc2cc(C#N)c(N3CCN(C)CC3)nc12 | inactive |  |
| CCC(C)Sc1nc(O)cc(=O)[nH]1 (stereo not drawn) | inconclusive: 6.57% [at 7.6 µM] |  |
| CCN1CCN(CC(=O)Nc2c(C(=O)OC)[nH]c3cccc(Cl)c23)CC1 | inconclusive: -8.15% |  |
| CN(C)C(=O)c1ccc(-c2cc(N(C)Cc3ccco3)ncn2)cc1 | inactive |  |
| O=C(CC1CCCCC1)NCc1cn2ccsc2n1 | inactive |  |
| O=C(O)C1CC(=O)N(c2ccc(F)c(F)c2)C1 (stereo not drawn) | inconclusive: 5.43% |  |
| CCN(CC)C(=O)CCC(=O)Nc1ccc(C(=O)OC)cc1 | inconclusive: 23.8% |  |
| CC(NC(=O)Cc1cccs1)C(c1cccs1)N1CCN(c2ccccc2F)CC1 (stereo not drawn) | inactive |  |
| CCN=C1SC(CC(=O)Nc2sc(C)c(C)c2C(=O)OC)C(=O)N1CC (stereo not drawn) | inconclusive: 4.36% |  |
| Cc1cc(O)c2c(c1)C(=O)c1cc(O)cc(O)c1C2=O | inconclusive: -5.74% |  |
| COC(=O)C1CCN(c2cc(=O)n(C3CCCCC3)c(=O)[nH]2)CC1 | inconclusive: -15.3% |  |
| O=C(NCc1ccccc1)N1CCC(n2cnc3cc(F)ccc32)CC1 | inactive |  |
| Cc1cc(C)n(-c2ccc(C(=O)OCC(=O)Nc3ccc(S(=O)(=O)N4CCOCC4)cc3)cc2)n1 | inconclusive: -18.5% |  |
| COc1ccccc1N1CCN(C(=O)c2cc(-c3ccc4c(c3)OCO4)on2)CC1 | inconclusive: -8.29% |  |
| COCCn1nnnc1C(c1cc2cc(C)ccc2[nH]c1=O)N1CCN(C2CCCCC2)CC1 (stereo not drawn) | inactive |  |
| Cc1ccc(NCc2nc3ccccc3n2C)cc1 |  | inconclusive: 0.398 µM [rising, full curve] |
| O=C(O)c1ccccc1C(=O)NCc1ccccc1 | inactive |  |
| CC(NC(=O)CSc1ncccn1)c1ccccc1 (stereo not drawn) | inactive |  |
| CCCCCCn1c(NCC)nc2c1c(=O)n(C)c(=O)n2C | inactive |  |
| CCCCn1c(=O)c2c(c3ccccc31)OCC(=O)N2 |  | inconclusive: 1 µM [rising, full curve, poor fit] |
| CCOC(=O)CCCSc1nc2sc(C)c(C)c2c(=O)[nH]1 |  | inconclusive: 12.6 µM [rising, single point] |
| Cc1ccc(SCc2nc(-c3cccnc3)no2)cc1 | inconclusive: 29% |  |
| Cc1cc(NC(=O)CSc2nc(-c3ccco3)cc(C(F)(F)F)n2)n(-c2ccccc2)n1 |  | inconclusive: 7.94 µM [rising, partial curve] |
| O=C(Nc1ccc(Cl)c(Cl)c1)N1CCSC1c1ccco1 (stereo not drawn) |  | inconclusive: 3.98 µM [rising, partial curve] |
| COc1ccc(CCC(=O)Nc2ccc(-c3noc(-c4ccc(OC)c(OC)c4)n3)cc2)cc1 | inconclusive: -4.97% |  |
| O=C(O)CSc1nnc(-c2ccccc2O)n1Cc1ccccc1 | inactive |  |
| N#Cc1cc2ccccc2nc1SCc1ccccn1 |  | inconclusive: 12.6 µM [rising, single point] |

| Structure (SMILES) | activity change, negative = inhibition | Potency |
| --- | --- | --- |
| COC(=O)c1sc2nc(CN3CCOCC3)nc(N3CCOCC3)c2c1C |  | inconclusive: 12.6 µM [rising, partial curve] |
| CCOC(=O)c1sc(=S)n(CC)c1N |  | inconclusive: 15.8 µM [rising, partial curve] |
| O=C(CN1CCC2(CC1)OCCO2)c1ccc2cc[nH]c2c1 | inconclusive: -11.3% |  |
| C=CCn1c(SCc2c(C)noc2C)nc2sc3c(c2c1=O)CCCCC3 |  | active: 2.51 µM |
| CCc1cc2c(NCCN3CCCCC3)ncnc2s1 | inconclusive: -3.49% |  |
| CCOC(=O)N1CCN(c2nc(C)cc(C(F)(F)F)n2)CC1 | inconclusive: -5.7% |  |
| COCCn1c(=O)c(CCc2ccccc2)nc2cnc(N3CCN(C)CC3)nc21 | inactive |  |
| Cn1c(=O)c(-c2ccccc2)nc2cnc(Nc3ccccc3)nc21 |  | inconclusive: 3.98 µM [rising, partial curve] |
| CC(=O)Oc1ccc(C(=O)Nc2nccs2)cc1 | inconclusive: -21.8% |  |
| C=CC1=C(C)C2=NC1=CC1=NC(=CC3=NC(=CC4=NC(=C2)C(C)=C4CCC(=O)O)C(CCC(=O)O)=C3C)C(C=C)=C1C.[Zn] | inconclusive: -4.67% |  |
| Nn1c(SC/C=C/c2ccccc2)nnc1-c1ccncc1 | inconclusive: -9.46% |  |
| CC(=O)c1cc2c(cc1NC(=O)CCCC(=O)O)OCO2 | inconclusive: 7.45% |  |
| CN(C)C(=O)c1ccc(-c2ccc3ncnc(N(C)C)c3c2)cc1 | inconclusive: 21.9% |  |
| Cc1cccc(NS(=O)(=O)c2ccccc2)n1 | inconclusive: 22.5% [at 7.6 µM] |  |
| O=S1(=O)CCN(c2ccccc2CC(c2c[nH]c3ccccc23)c2c[nH]c3ccccc23)CC1 | inactive: -22.3% [at 7.6 µM] |  |
| CCOC(=O)c1c(CN2CCCCC2)n(C)c2cc(Br)c(OC)cc12 |  | active: 10 µM |
| S=c1nc(-c2ccccc2)n(CCN2CCOCC2)c2c1CCCC2 | inactive |  |
| O=C(O)c1oc2ccc(Br)cc2c1-n1cccc1 | inconclusive: 2.38% |  |
| CCOC(=O)Nc1nnc(CCc2ccccc2)s1 | inactive |  |
| CCOC(=O)N1CCN(C(=O)c2cc(-c3ccc(OCC)cc3)nc3ccccc23)CC1 | inconclusive: 18.8% |  |
| Nc1ccc2oc(-c3cccc4ccccc34)nc2c1 | inconclusive: -3.25% |  |
| CC(C)(C)c1ccc(-c2nc(C#N)c(NCc3ccncc3)o2)cc1 |  | inconclusive: 15.8 µM [rising, single point] |
| COc1ccc(Oc2ncc3nc(-c4ccc(F)cc4)c(=O)n(Cc4cccs4)c3n2)cc1 |  | active: 12.6 µM |
| COc1cc(C(=O)N2CCN=C2c2ccccc2)cc(OC)c1OC |  | inconclusive: 12.6 µM [rising, single point] |
| O=C1C(SCCO)=C(SCCO)C(=O)c2ccccc21 |  | inconclusive: 10 µM [rising, full curve, poor fit] |
| CN[C@@H](CC(C)C)C(=O)N[C@@H]1C(=O)N[C@H](CC(N)=O)C(=O)N[C@H]2C(=O)N[C@H]3C(=O)N[C@H](C(=O)N[C@H](C(=O)O)c4cc(O)cc(O)c4-c4cc3ccc4O)[C@H](O)c3ccc(c(Cl)c3)Oc3cc2cc(c3O[C@@H]2O[C@@H](CO)[C@@H](O)[C@@H](O)[C@H]2O[C@H]2C[C@](C)(N)[C@H](O)[C@H](C)O2)Oc2ccc(cc2Cl)[C@@H]1O | inactive |  |
